Laboratory results published in PubChem BioAssay AID488969 (Vanderbilt High Throughput Screening Facility, 2010).
Whole data set: some 110,000 compounds, median “z-score” near -0.1, cut for the highest 2% near 2. The list shows a part of the results. Active and inactive are the calls of the source.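 How the source made its calls: active means z-score in the third read window above 3 or below -3; inactive means the rest.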

target: Metabotropic glutamate receptor 8 (Rattus norvegicus) (UniProt P70579); test: mGluR8 Gi/Go-coupled signaling modulation – cell-based, rat, thallium flux, HTS, primary screen (AID 488969); conditions: HEK293 rat mGluR8, GIRK (G protein-gated inwardly rectifying potassium channel) thallium flux, FluoZin2; at 10 µM; stronger effect = higher value; submaximal glutamate (EC20) added with thallium
Chain of UniProt P70579 (P70579 whole entry, looked up): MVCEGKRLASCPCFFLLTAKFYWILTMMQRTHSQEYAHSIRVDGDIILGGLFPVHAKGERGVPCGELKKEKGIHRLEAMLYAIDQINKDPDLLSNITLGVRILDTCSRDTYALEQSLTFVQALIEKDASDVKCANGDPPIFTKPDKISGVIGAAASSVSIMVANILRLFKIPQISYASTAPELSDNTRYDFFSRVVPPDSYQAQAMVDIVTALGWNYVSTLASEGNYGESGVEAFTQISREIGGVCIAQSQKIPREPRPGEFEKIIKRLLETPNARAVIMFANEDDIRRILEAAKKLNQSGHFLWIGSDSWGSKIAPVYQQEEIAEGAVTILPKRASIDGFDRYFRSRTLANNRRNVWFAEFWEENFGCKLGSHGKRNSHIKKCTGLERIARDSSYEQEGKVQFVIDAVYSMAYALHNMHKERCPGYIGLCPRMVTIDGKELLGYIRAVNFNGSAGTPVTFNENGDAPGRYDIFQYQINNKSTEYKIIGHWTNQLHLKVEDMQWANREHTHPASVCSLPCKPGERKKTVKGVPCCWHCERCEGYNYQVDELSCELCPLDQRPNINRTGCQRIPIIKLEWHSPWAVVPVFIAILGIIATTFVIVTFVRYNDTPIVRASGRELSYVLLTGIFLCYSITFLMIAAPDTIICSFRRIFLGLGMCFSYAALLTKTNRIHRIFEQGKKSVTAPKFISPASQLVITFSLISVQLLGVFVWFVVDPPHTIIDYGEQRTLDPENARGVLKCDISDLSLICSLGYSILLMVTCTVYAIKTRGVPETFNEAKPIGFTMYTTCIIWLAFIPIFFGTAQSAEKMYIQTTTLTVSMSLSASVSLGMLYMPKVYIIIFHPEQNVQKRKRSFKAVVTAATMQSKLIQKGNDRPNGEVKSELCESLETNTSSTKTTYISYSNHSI

SMILES | z-score
CCOc1cc(N2CCOCC2)c(OCC)cc1NC(=O)COC(=O)c1cc2ccccc2cc1O | 0.511
CCCCC(=O)NNC(=S)NC(=O)c1cccc([N+](=O)[O-])c1 | 0.267
CS(=O)(=O)N1CC(C(=O)NC2CCCC2)Oc2ccc(Cl)cc21 (stereo not given) | 0.108
CC(=O)Nc1ccc(C(=O)OCc2ccc(Cl)c(Cl)c2)cc1 | -0.193
CCOC(=O)C(NC(=O)c1cccc(Cl)c1)(OCc1ccccc1)C(F)(F)F (stereo not given) | -1.19
CCCCN(C)C1=Nc2cccc3cccc1c23 | active: 3.17
O=C(O)CNC(=O)/C(=C/c1ccco1)NC(=O)/C=C/c1ccccc1 | 0.13
COc1ccc(Cc2nnc(SCC(=O)c3ccccc3)o2)cc1 | -1.09
COc1ccc2nc(SCC(=O)Nc3c(C)cc(C)cc3C)[nH]c2c1 | 0.00551
Cc1nc2ccc(S(=O)(=O)NCC(=O)NCCN3CCCCCC3)cc2s1 | -0.192
Cn1c(NC(=O)c2ccc(S(=O)(=O)N3CCOCC3)cc2)cc(=O)n(C)c1=O | 0.0197
O=C(Nc1ccccc1C(=O)Nc1ccccc1C(=O)NCc1ccco1)c1ccco1 | -0.311
CCC(=O)N1CCN(c2ccc(Cl)cc2NC(=O)Cc2ccccc2)CC1 | -1.47
Cc1ccc(SCC(=O)OCn2nnc3ccccc3c2=O)cc1C | -0.136
Cc1cccc(N2CCN(C(=O)CN(C)S(=O)(=O)c3ccc4c(c3)CCC(=O)N4)CC2)c1C | -0.263
C=CCNC(=O)/C(C#N)=C\c1cc(Cl)c(O)c(OCC)c1 | -2.8
O=C1OCCC1Sc1ncnc2sc3c(c12)CCC3 (stereo not given) | -0.028
Cc1ccc(NC2=CC(=O)CC(c3ccc(Cl)cc3)C2)cc1 (stereo not given) | 0.0314
O=S(=O)(Nc1nc2ccccc2nc1Nc1ccc2c(c1)OCO2)c1ccccc1 | -0.165
COc1cc(CNn2cn[nH]c2=S)cc(Cl)c1OCc1ccccc1 | -0.1
Cc1ccc2cc3c(NC(=O)CC(C)C)nn(C)c3nc2c1 | -0.274
CN(C)CCNC(=O)Cc1ccc([N+](=O)[O-])cc1 | -0.273
Clc1ccc(N/N=C/c2ccncc2)cc1Cl | 0.00108
CCOC(=O)c1ccccc1Oc1c(F)c(F)nc(NCCO)c1F | -0.535
CCSc1nnc(-c2cccnc2)n1Cc1ccco1 | -0.371
CC1CCN(CCc2nc3cc(NC(=O)NC4CCCCC4)ccc3n2C)CC1 | -0.109
O=C(Nc1ncnc2c1CCC2)C12CC3CC(CC(C3)C1)C2 | 0.0614
CCCNC(=O)c1ccccc1NC(=O)Nc1ccccc1C | 0.392

SMILES | z-score
COc1cc2c(cc1OC)C(C(=O)N1CCN(c3ccccc3)CC1)C(c1cccs1)N(C)C2=O (stereo not given) | 1.09
Cc1c(Cl)c([N+](=O)[O-])nn1CC(=O)NC1CCCCC1 | 0.15
Cc1cnn(C(=O)c2cc(-c3ccccc3)nc3ccccc23)c1 | -0.147
Nc1ccc(C(=O)OCC(=O)Nc2ccc3c(c2)OCO3)cc1[N+](=O)[O-] | 0.149
O=S(=O)(NC1=NCCCCC1)c1ccc2ccccc2c1 | -0.393
Cc1cc(Nc2ccc(Cl)cc2)n(-c2ccccc2)n1 | -0.464
COc1ccc(OC)c(C(c2nnnn2C2CCCC2)N2CCN(c3ccccc3F)CC2)c1 (stereo not given) | -0.346
CC(=O)Nc1c(NC(C)C)c2ccccc2oc1=O | -0.112
CC1CCN(C(=O)CCCOc2ccc(Cl)cc2)CC1 | -0.565
CC(=O)Oc1ccc(Cl)cc1/C=C/c1ccc2ccccc2n1 | -0.219
Cc1cccc(NC(=S)NC2CC3CCC(C2)N3Cc2ccco2)c1C (stereo not given) | -0.184
Nc1nc(Br)c2c(F)cccc2c1-c1ccccc1 | 0.0016
O=c1cc(CO)occ1OCc1ccccc1 | -0.141
Cc1ccc(S(=O)(=O)Nc2c(C)n(C)n(-c3ccccc3)c2=O)cc1 | 0.244
CCOC(=O)C(OC(=O)c1sc(=S)n(C)c1C)C(C)=O (stereo not given) | -0.351
Cc1nc(SCC(=O)O)c2oc3ccccc3c2n1 | -0.0394
CNC(=O)C1=NCCCc2cc(OC)c(OC)cc21 | 0.141
O=C(O)CCN1C(=O)c2ccc(Oc3ccc4c(c3)C(=O)N(CCC(=O)O)C4=O)cc2C1=O | -0.299
Cc1cc(C)c(NC(=O)CS(=O)CC(=O)NCC2CCCO2)c(C)c1 (stereo not given) | -0.212
CCOc1c(Cl)cc(CNCC(C)C)cc1Cl | 0.367
O=C(Cn1cncn1)NCc1cccc2ccccc12 | -0.0174
CCN1CCCC1CNc1ncnc2c1[nH]c1ccc(F)cc12 (stereo not given) | 2.55
O=S(=O)(Nc1ccc(N2CCOCC2)cc1)c1ccc(Cl)s1 | -0.104
COCCNC(=O)c1ccc(NS(C)(=O)=O)cc1 | -0.321
CCCCOCCCNC(=O)Cc1ccccc1OC | -1.07
O=[N+]([O-])c1ccc(COc2ccc(-c3[nH]ncc3-c3ccccc3)c(O)c2)cc1 | 0.418
CCc1cc(=O)oc2c(CN3CCN(C)CC3)c(O)c(Cl)cc12 | 0.172
